In the supplement of paper PMC11417369:
The list shows a part of the results.

tested on: PfSIP2 AP2 domain 1 (GST-tagged); assay: gcPBM binding intensity (ln(normalized median fluorescence intensity)); higher = stronger DNA binding
Summary of the method: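 Binding of GST-tagged P. falciparum DNA-binding domains, expressed in E. coli and used at about 25 μg on average, was carried out for 1 h in 1× PBS containing 1% milk, 0.2 mg/ml BSA, 0.5% salmon testes DNA and 0.03% Triton X-100. The target was an Agilent 4 × 180k array of primer-extended double-stranded 36-bp intergenic genomic probes plus negative controls, read with Alexa488 anti-GST antibody at 488 nm. Binding intensity is the highest Masliner-normalised natural-log median intensity across replicate spots of either probe orientation.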

Sequence	gcPBM binding intensity (ln)
TATTAATATATAGTAGTGCAATAAAGATATACTGAA	8.3
AACATACTCACGAACATACACACGGACATACATACG [CACACA_site603]	7.11
CTTAATTTTTTTTAATGTACATACATATAAACCTTT [XGTACX_site2233]	7.15
AGTTATATGTACTACACACGTACACAAAATAAGATA [CACACA_site3719]	7.71
AAAATTAAAAATAACACACACATATTTATATTTATA [CACACA_site7329]	6.87
AAGGAGAAATATTGCACACGTGCAAAATGGTATGAG [CACACA_site259]	9.43
TATTCTTTTATGAATACACACATATACGAAAATATT [CACACA_site6585]	6.95
AAATGTTAAAAAGAGAAAAACAATAAAAAACAATTA [CACACA_negctrl_site1044]	6.58
AAAAGGTTATCAAAATGTACGAAATGTTACAAAAAT [XGTACX_site6215]	7.01
AGGTGTCATAGATGCACACAAAAGTAACACGCACCT [CACACA_site4418]	9.65
ATAACCTAATAATACACACACATGAATATAAATAAC [CACACA_site6584]	7.28
ATATATATTTTATACGCATGTAATTATTATGTGGTC [TGCATGCA_site45]	7.31
AAACAATTTGGGTGTACACATGATACGTTCGATGAG [CACACA_site5160]	7.18
ATATTATACATTTATACACACATAAAAAGACAAAAA [CACACA_site3565]	7.2
TGTAATATTTTTCATGCATGCTCTTCTTTTACATAA [TGCATGCA_site144]	6.96
ATAATTTATATTACTTGTACATATTTATATGAACGA [XGTACX_site3610]	6.86
TATATTAAACAATATACACACATTAATGTATCCATA [CACACA_site5523]	6.86
TTATATATATATATATGTACACATATATAACATGAT [XGTACX_site6643]	7.43
CATAAATAATATATTTGTACGAATAAAATTTGTTCA [XGTACX_site3445]	6.74

Sequence	gcPBM binding intensity (ln)
TAAAACAATATAAAATGTACAGAATTTTTTTTTCTT [XGTACX_site6820]	6.7
TTCTTTTATGATAATTGTACCCTTTTTAAAAAGAAA [XGTACX_site7815]	7.27
ATAATGAAAAGAAAGGGTACAAAAAAAAAAAAAAAT [XGTACX_site3350]	6.89
AACTGATTATTTTTTTGTACATATATAATAATATAT [XGTACX_site5953]	7.13
TTTTTTTTCAATGGCACACATTTTAGATTTATGCTT [CACACA_site4735]	7.88
TTTTTATTTATTCTCTTTGTATTATAAAATAAAAGC [XGTACX_negctrl_site253]	7.06
ATATATATATAATGTTGTACATAAATATTATATTTA [XGTACX_site5225]	8.82
GGAAAAATATAATATGCATGTTATTATTTTTTTATA [TGCATGCA_site836]	6.77
TATGTATATACATAAACATGCAAAAACAATATCTTA [TGCATGCA_site950]	6.85
TATTTATTTATTTAATGTACAAAAGAACAAGAATTT [XGTACX_site2248]	6.95
TTCTTCTGTTTTATTACACACCATTTTGTGTATACA [CACACA_site7059]	7.42
TCTTAATCGTATTATTACTATAATTATATAATATTT [CACACA_negctrl_site1594]	7.13
ATATATATATTATATAGTACAGAGTATACTATTATA [XGTACX_site1893]	7.87
CAAAAAGGAATGTATGCACACAATTGATTTTAACTC [CACACA_site1468]	8.51
AACGATATATGTACTACACACATTATGTCATCCTAT [CACACA_site2464]	7.21
GATCTAAAAACAAGGTGTACAAGAAAAAAAAAAAAA [XGTACX_site7577]	6.98
ACAAAAGGGGAATACACACACATATATATATATATA [CACACA_site2215]	9.33
GCCCACACGAACCATGCATGCCACGATATAAACCAC [TGCATGCA_site322]	7.24
TTTTTTACAGAAAAATATTAAAATTATAAATGTGAA [GTGCAC_negctrl_site451]	7.03

Sequence	gcPBM binding intensity (ln)
TAATATATATATATGGTGCATTTAATTTATATATAA	10.8
TATGAAATTTTAATTACACACAGGAAAATAAAATGT [CACACA_site8430]	6.96
TTATAATATATATAAAAGAAAAAAAATTATAATATA [CACACA_negctrl_site90]	6.69
TTATTTTTCTTTATTGGTACACACGAAAAAAAAATT [XGTACX_site6482]	7.27
ATATATATTTTTAATTGTACAGAATTAAAAATATTG [XGTACX_site1967]	6.92
CTTTAACCATATATGTGTACGTATTTTATTCATATT [XGTACX_site6212]	7.42
AAAAAAAAAAAAAGCTGTACAATTAAAGACAAACCT [XGTACX_site8610]	7.14
AAGAAGTGGAAAATATACTCCACATATATATATGTG [CACACA_negctrl_site304]	7.56
AAAAAACAATTTGTGTGTACACATGATACGTTCGAT [XGTACX_site4112]	7.25
TATATAGTAAATATTTGTACATAATAAAATATATGT [XGTACX_site7873]	7
ATCTTAATTTTTGAAGGTACACACTAATATATTAAA [XGTACX_site2292]	7.12
ATATTTTATTATATAGGTACACATAATTTCATGTAA [XGTACX_site415]	7.11
AATAAATAAAAATGCACACAGTTAACATGTTGAATT [CACACA_site4795]	7.07
TTTTGTACATCTTTTGCACACGTAATGTTATTATAA [CACACA_site1259]	7.34
TTTTTTTTTTATTAATGTACAAGATATATAATGTTA [XGTACX_site4809]	6.84
TATAATATAAAAATGAGTACATAGATAATAATATTT [XGTACX_site2376]	7.19
AATGATACACATATATGTACATATATATATATATAT [XGTACX_site5391]	9.46
TGCAATATATCAAAGTGTACATGCAATAAAAAAAAA [XGTACX_site652]	7.05
ATATGGATTATACATACATGCATACATACATACATA [TGCATGCA_site475]	7.1
